# The list shows a part of the results.
# B1: Annexin-A1 (Mus musculus), P10107 (protein)
# chain: MAMVSEFLKQARFLENQEQEYVQAVKSYKGGPGSAVSPYPSFNVSSDVAALHKAIMVKGVDEATIIDILTKRTNAQRQQIKAAYLQENGKPLDEVLRKALTGHLEEVVLAMLKTPAQFDADELRGAMKGLGTDEDTLIEILTTRSNEQIREINRVYREELKRDLAKDITSDTSGDFRKALLALAKGDRCQDLSVNQDLADTDARALYEAGERRKGTDVNVFTTILTSRSFPHLRRVFQNYGKYSQHDMNKALDLELKGDIEKCLTTIVKCATSTPAFFAEKLYEAMKGAGTRHKALIRIMVSRSEIDMNEIKVFYQKKYGISLCQAILDETKGDYEKILVALCGGN
# Columns and labels:
# Assay in all cases: glycan array binding signal (z-score within array); higher = stronger binding
# Details in all cases: glycan notation: IUPAC condensed, linker removed
# [1] = biological target: Gal6S(b1-4)Glc6S
# In short: (§1)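 The Consortium for Functional Glycomics database supplied 3228 glycan arrays, of which those lacking an available protein sequence were dropped. The binding signal, a within-array Z-score, was averaged across arrays of the same protein sequence and across linkers. Negative scores can be read as non-binding.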
# [2] = biological target: Gal6S(b1-4)GlcNAc
# In short: as §1
# [3] = biological target: GalNAc(a1-3)Gal
# In short: as §1
# [4] = biological target: GalNAc(a1-3)GalNAc
# In short: as §1
# [5] = biological target: GalNAc(b1-3)Gal(a1-4)Gal(b1-4)GlcNAc
# In short: as §1
# [6] = biological target: GalNAc(b1-4)GlcNAc
# In short: as §1
# [7] = biological target: Glc(a1-4)Glc
# In short: as §1
# [8] = biological target: Glc(a1-6)Glc(a1-6)Glc
# In short: as §1
# [9] = biological target: Glc(b1-4)Glc
# In short: as §1
# [10] = biological target: Glc(b1-6)Glc
# In short: as §1
# [11] = biological target: GlcA(b1-3)Gal
# In short: as §1
# [12] = biological target: GlcA(b1-6)Gal
# In short: as §1
# [13] = biological target: GlcNAc(a1-3)Gal(b1-4)GlcNAc
# In short: as §1
# [14] = biological target: GlcNAc(a1-6)Gal(b1-4)GlcNAc
# In short: as §1
# [15] = biological target: GlcNAc(b1-2)Gal(b1-3)GlcNAc
# In short: as §1
# [16] = biological target: GlcNAc(b1-2)Man(a1-3)[GlcNAc(b1-2)Man(a1-6)]Man(b1-4)GlcNAc(b1-4)GlcNAc
# In short: as §1
# [17] = biological target: GlcNAc(b1-3)Gal
# In short: as §1
# [18] = biological target: GlcNAc(b1-3)Gal(b1-3)GalNAc
# In short: as §1
# [19] = biological target: GlcNAc(b1-3)Gal(b1-4)Glc
# In short: as §1
# [20] = biological target: GlcNAc(b1-3)Gal(b1-4)GlcNAc
# In short: as §1
# [21] = biological target: GlcNAc(b1-3)Gal(b1-4)GlcNAc(b1-3)Gal(b1-4)GlcNAc
# In short: as §1
# [22] = biological target: GlcNAc(b1-3)GalNAc
# In short: as §1
# [23] = biological target: GlcNAc(b1-3)[GlcNAc(b1-4)][GlcNAc(b1-6)]GlcNAc
# In short: as §1
# [24] = biological target: GlcNAc(b1-3)[GlcNAc(b1-6)]Gal(b1-4)GlcNAc
# In short: as §1
# [25] = biological target: GlcNAc(b1-3)[GlcNAc(b1-6)]GlcNAc
# In short: as §1
# [26] = biological target: GlcNAc(b1-4)Gal(b1-4)GlcNAc
# In short: as §1
# [27] = biological target: GlcNAc(b1-4)GlcNAc(b1-4)GlcNAc
# In short: as §1
# [28] = biological target: GlcNAc(b1-4)GlcNAc(b1-4)GlcNAc(b1-4)GlcNAc(b1-4)GlcNAc
# In short: as §1
# [29] = biological target: GlcNAc(b1-4)GlcNAc(b1-4)GlcNAc(b1-4)GlcNAc(b1-4)GlcNAc(b1-4)GlcNAc
# In short: as §1
# [30] = biological target: GlcNAc(b1-4)[GlcNAc(b1-6)]GalNAc
# In short: as §1
# [31] = biological target: GlcNAc(b1-6)Gal(b1-4)GlcNAc
# In short: as §1
# [32] = biological target: GlcNAc(b1-6)GalNAc
# In short: as §1
# [33] = biological target: Kdn(a2-3)Gal(b1-3)GlcNAc
# In short: as §1
# [34] = biological target: Kdn(a2-3)Gal(b1-4)GlcNAc
# In short: as §1
# [35] = biological target: Man(a1-2)Man(a1-2)Man(a1-3)Man
# In short: as §1
# [36] = biological target: Man(a1-2)Man(a1-2)Man(a1-3)[Man(a1-2)Man(a1-3)[Man(a1-2)Man(a1-6)]Man(a1-6)]Man(b1-4)GlcNAc(b1-4)GlcNAc
# In short: as §1
# [37] = biological target: Man(a1-2)Man(a1-2)Man(a1-3)[Man(a1-2)Man(a1-6)[Man(a1-3)]Man(a1-6)]Man(b1-4)GlcNAc(b1-4)GlcNAc
# In short: as §1
binder,measurement,setting,value
B1,glycan array binding signal (z-score),[1],3.55
same,glycan array binding signal (z-score),[2],-0.12
same,glycan array binding signal (z-score),[3],-0.428
same,glycan array binding signal (z-score),[4],-0.443
same,glycan array binding signal (z-score),[5],-0.221
same,glycan array binding signal (z-score),[6],-0.405
same,glycan array binding signal (z-score),[7],-0.106
same,glycan array binding signal (z-score),[8],-0.577
same,glycan array binding signal (z-score),[9],0.223
same,glycan array binding signal (z-score),[10],-0.231
same,glycan array binding signal (z-score),[11],0.114
same,glycan array binding signal (z-score),[12],0.482
same,glycan array binding signal (z-score),[13],-0.417
same,glycan array binding signal (z-score),[14],-0.738
same,glycan array binding signal (z-score),[15],-0.395
same,glycan array binding signal (z-score),[16],0.064
same,glycan array binding signal (z-score),[17],-0.137
same,glycan array binding signal (z-score),[18],-0.049
same,glycan array binding signal (z-score),[19],-0.278
same,glycan array binding signal (z-score),[20],0.378
same,glycan array binding signal (z-score),[21],-0.532
same,glycan array binding signal (z-score),[22],-0.231
same,glycan array binding signal (z-score),[23],-0.436
same,glycan array binding signal (z-score),[24],-0.758
same,glycan array binding signal (z-score),[25],-0.452
same,glycan array binding signal (z-score),[26],-0.318
same,glycan array binding signal (z-score),[27],-0.237
same,glycan array binding signal (z-score),[28],-0.446
same,glycan array binding signal (z-score),[29],-0.547
same,glycan array binding signal (z-score),[30],-0.564
same,glycan array binding signal (z-score),[31],0.067
same,glycan array binding signal (z-score),[32],-0.628
same,glycan array binding signal (z-score),[33],-0.771
same,glycan array binding signal (z-score),[34],-0.687
same,glycan array binding signal (z-score),[35],0.192
same,glycan array binding signal (z-score),[36],-0.211
same,glycan array binding signal (z-score),[37],-0.282

# From the supplement of paper PMC8728848
